According to US20190069553A1, “METHOD FOR CONTROLLING PPO RESISTANT WEEDS” (BASF SE, priority 2016, published 2019):
Read-outs that look alike come from different tables or passages of the source.

How the values were obtained:
[1] = test system: Amaranthus tamariscinus (common waterhemp, AMATA), PPO resistant biotype 8 (w.12); assay: Greenhouse herbicidal activity test, third experiment, weed w.12; assay type: in vivo; conditions: use rate 2 g/ha; PPO resistant biotype 8 common waterhemp; scale 0 to 100
[2] = test system: Amaranthus tamariscinus (common waterhemp, AMATA), PPO resistant biotype 7 (w.11); assay: Greenhouse herbicidal activity test, third experiment, weed w.11; assay type: in vivo; conditions: use rate 2 g/ha; PPO resistant biotype 7 common waterhemp; scale 0 to 100
[3] = test system: Ambrosia elatior (common ragweed, AMBEL), PPO resistant biotype 4 that contains the R98L mutation (w.6); conditions: scale 0 to 100
[4] = test system: Ambrosia elatior (common ragweed, AMBEL), PPO resistant biotype 3 that contains the R98L mutation (w.5); conditions: scale 0 to 100
[5] = test system: Amaranthus tamariscinus (common waterhemp, AMATA), PPO resistant biotype 1 (w.2); assay type: in vivo; conditions: PPO resistant biotype 1 common waterhemp, scale 0 to 100
[6] = test system: Amaranthus tamariscinus (common waterhemp, AMATA), PPO resistant biotype 2 (w.3); assay type: in vivo; conditions: PPO resistant biotype 2 common waterhemp, scale 0 to 100

## C#CCOc1cc(-n2nc3n(c2=O)CCCC3)c(Cl)cc1Cl [azafenidin, reference compound]
[1]
  Weed control (%) w.12: 70%
[2]
  Weed control (%) w.11: 67%

## CCOC(=O)COc1ncccc1Oc1cc(-n2c(=O)cc(C(F)(F)F)n(C)c2=O)c(F)cc1Cl [compound (I).1, ethyl [3-[2-chloro-4-fluoro-5-(1-methyl-6-trifluoromethyl-2,4-dioxo-1,2,3,4-tetrahydropyrimidin-3-yl)phenoxy]-2-pyridyloxy]acetate]
[3]; use rate 1 g/ha, […]
  Weed control (%) w.6: 100%
[3]; use rate 2 g/ha, […]
  Weed control (%) w.6: 100%
[4]; use rate 1 g/ha, […]
  Weed control (%) w.5: 100%
[4]; use rate 2 g/ha, […]
  Weed control (%) w.5: 100%

## C#CCN1C(=O)COc2cc(F)c(N3C(=O)C4=C(CCCC4)C3=O)cc21 [flumioxazin, reference compound]
[5]; use rate 1 g/ha
  Weed control (%) w.2: 30%
[5]; use rate 2 g/ha
  Weed control (%) w.2: 30%
[3]; use rate 1 g/ha, PPO resistant biotype 4 (R98L) common ragweed
  Weed control (%) w.6: 0%
[3]; use rate 2 g/ha, PPO resistant biotype 4 (R98L) common ragweed
  Weed control (%) w.6: 20%
[4]; use rate 1 g/ha, PPO resistant biotype 3 (R98L) common ragweed
  Weed control (%) w.5: 0%
[4]; use rate 2 g/ha, PPO resistant biotype 3 (R98L) common ragweed
  Weed control (%) w.5: 10%
[6]; use rate 1 g/ha
  Weed control (%) w.3: 0%
[6]; use rate 2 g/ha
  Weed control (%) w.3: 70%

## CCOC(=O)COc1ccccc1Oc1cc(-n2c(=O)cc(C(F)(F)F)n(C)c2=O)c(F)cc1Cl [compound (I).4]
[1]
  Weed control (%) w.12: 100%
[2]
  Weed control (%) w.11: 89%
